One may read the koff as the rate constant with which the complex falls apart.

The target in assay [1] is recombinant human KLK5 (human) (UniProt Q9Y337). Put plainly: cell-based or functional assay.
Assay [2] has the same target. Put plainly: Ki(app) assay: IC50 (Z-VPR-pNA) at 0.5-0.0625 nM KLK5 plotted against KLK5 concentration, y-intercept.
Assay [3] has the same target. Put plainly: array SPR imaging (IBIS MX96), immobilized ligand, human KLK5 injected 0-300 nM, 25 C.

UniProt Q9Y337, sequence (Q9Y337 67-293): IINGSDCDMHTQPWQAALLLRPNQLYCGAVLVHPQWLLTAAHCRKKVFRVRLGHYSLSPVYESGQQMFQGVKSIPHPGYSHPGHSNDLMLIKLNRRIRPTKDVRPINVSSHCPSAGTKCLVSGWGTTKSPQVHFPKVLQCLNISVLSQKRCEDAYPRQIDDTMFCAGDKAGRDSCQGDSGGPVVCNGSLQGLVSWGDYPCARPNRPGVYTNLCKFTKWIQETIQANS

B1: SPINK9.SRE.Fc (Fc fusion)
chain: IESAKQTKQMVDCSHYKKLPPGQQRFCHREYDPICGSDGKTYKNDCFFCSKVKKTDGTLKFVHFGKCGNSVT[gap - human IgG1 Fc]
Consider B1, for which, in assay [1], the IC50, KLK5 direct activity assay (Boc-VPR-AMC) was 1.23 nM; the IC50, KLK5 pro-KLK7 coupled assay was determined as 2.07 nM; the IC50, pro-KLK1 LC/MS assay stood at 0.58 nM; the IC50, pro-KLK7 LC/MS assay worked out at 1.13 nM. In addition, the Ki in assay [2] amounted to 1.28 nM. For the same molecule, the koff in assay [3] came to 0.00047 s⁻¹.

The values are drawn from patent publication US20200040103A1.
